Among the data in PubChem BioAssay AID1745853 (National Center for Advancing Translational Sciences (NCATS), 2022) are activity change, negative = inhibition values, retold here.

Some of the results follow. Further columns of the screen follow, without active or inactive calls.

Test in all cases: Primary Screen for Target Class Profiling of Small Molecule Inhibitors of Methyltransferases
Test [1] addresses Glycine N-methyltransferase (Homo sapiens) (UniProt Q14749). Conditions: purified enzyme, MTase-Glo SAH luminescence; measured here: GNMT inhibition; at 40 µM; stronger effect = lower value. The procedure, abridged: (§1)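 Each enzyme was assayed with SAM and its substrate. SAH formation detected by MTase-Glo luminescence; single-point 40 uM screen[…].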
Test [2] addresses Guanidinoacetate N-methyltransferase (Homo sapiens) (UniProt Q14353). The conditions noted are these: purified enzyme, MTase-Glo SAH luminescence; measured here: GAMT inhibition; at 40 µM; stronger effect = lower value. The procedure, abridged: as §1
Test [3] concerns the target Histamine N-methyltransferase (Homo sapiens) (UniProt P50135). Conditions: purified enzyme, MTase-Glo SAH luminescence; measured here: HNMT inhibition; at 40 µM; stronger effect = lower value. The procedure, abridged:
as §1

Test [4] addresses Nicotinamide N-methyltransferase (Homo sapiens) (UniProt P40261). The conditions noted are these: purified enzyme, MTase-Glo SAH luminescence; measured here: NNMT inhibition; at 40 µM; stronger effect = lower value. The procedure, abridged: as §1
The target of test [5] is Phenylethanolamine N-methyltransferase (Homo sapiens) (UniProt P11086). The conditions noted are these: purified enzyme, MTase-Glo SAH luminescence; measured here: PNMT inhibition; at 40 µM; stronger effect = lower value. The procedure, abridged:
as §1
On the % scale 0 is the no-effect control and ±100 the full control effect.

Turning to `CC(=O)OC1CCC2(C)C(CCC3(C)C2CC=C2C4C(C)C(C)CCC4(C)CCC23C)C1(C)C(=O)O` (stereo not drawn), the activity change, negative = inhibition was 1.21% in test [1]; 7.26% in test [2]; 8.58% in test [3]; -8.04% in test [4]; 5.04% in test [5].
On the same counts, the results for `O=C1c2ccccc2C(=O)c2cc(S(=O)(=O)Nc3ccc(Br)cc3)ccc21` are -39.4%, -2.19%, -2.01%, -9.37% and -13.7%.
On the same counts, the results for `COc1ccc(CNC(=O)c2ncn3c2C(=O)N(C2CC2)C(C)(C(=O)NCc2ccc(C)cc2)C3)cc1` (stereo not drawn) are -0.743%, 2.59%, 8.53%, 4.09% and 2.9%.
Consider `CCCNC(=O)NCCc1ncc(C)n1CC1CC1`, for which the activity change, negative = inhibition was 0.693% in test [1]; 2.67% in test [2]; -28.1% in test [3]; 0.038% in test [4]; 2.67% in test [5].
As for `O=S(=O)(c1ccccc1)c1nnn2c1nc(NCc1ccccc1)c1cc(Cl)ccc12`, the activity change, negative = inhibition was 2.68% in test [1]; 0.393% in test [2]; 5.41% in test [3]; -0.153% in test [4]; 0.511% in test [5].
`Cc1ccc(S(=O)(=O)c2nnn3c2nc(NC2CCCC2)c2ccccc23)cc1C`: the activity change, negative = inhibition in test [1] is -2.13%; in test [2], 0%; in test [3], -1.15%; in test [4], 0.238%; in test [5] it was -5.55%.
As for `CN=C(N)NCCCCC/C=C(/C)CC(C)C1OC(=O)C(C)C(O)/C=C/C(C)C(O)CC(O)C(C)C(O)CCC(C)C(O)CC2(O)OC(CC(OC(=O)CC(=O)O)CC(O)CC(O)C(C)C(O)/C(C)=C/CCC1C)CC(O)C2O` (stereo not drawn), the activity change, negative = inhibition is 0.718% in test [1]; 14.6% in test [2]; 3.64% in test [3]; -1.14% in test [4]; -5.6% in test [5].
The corresponding values for `COCCn1c(C)cc(C(=O)N2CCCCCCNC(=O)CC2)c1C` are -3.94%, -14%, -2.08%, -5.09% and -2.47%.
The corresponding values for `NCCCCN(Cc1nc2ccccc2[nH]1)[C@H]1CCCc2cccnc21` are -5.84%, -8.84%, -6.34%, -19.7% and -5.29%.
With `Cc1cc(C)c(CNC(=O)c2cccc(CCC(C)(C)O)c2)cn1`, the activity change, negative = inhibition in test [1] was -8.21%; in test [2] it was -10.6%; in test [3] it was -8.38%; in test [4], -20%; in test [5], -12.4%.
Take `CC1CC(C)CN(S(=O)(=O)c2ccc3c(c2)oc(=O)n3CC(=O)Nc2ccc(F)cc2)C1` (stereo not drawn): the activity change, negative = inhibition is -5.79% in test [1]; 0% in test [2]; 1.08% in test [3]; -1.74% in test [4]; -31% in test [5].
For the compound `CCC1c2ccc(C)n2CCN1C(=O)NCc1cccc(OC)c1` (stereo not drawn), the activity change, negative = inhibition in test [1] is -10.8%; in test [2] it was 1.28%; in test [3] it was -7.32%; in test [4], -6.62%; in test [5], -8.27%.
As to `O=S(=O)(c1cccc2ccccc12)n1ccc2ccc(N3CCN4CCCC4C3)cc21` (stereo not drawn), the activity change, negative = inhibition in test [1] is 4.89%; in test [2], -7.02%; in test [3] it was -14.8%; in test [4], -29.9%; in test [5], -8.15%.
On the same counts, the results for `CN1CCN(CCCNC(=O)c2cc3n(n2)CC(C)(C(=O)NC2CCCC2)N(C)C3=O)CC1` (stereo not drawn) are 0.907%, 1.89%, -6.28%, 0.507% and -2.65%.
The corresponding values for `CCOC(=O)c1cc2n(n1)CC(C)(C(=O)NCc1ccc(F)cc1)N(Cc1ccc(Cl)cc1)C2=O` (stereo not drawn) are -4.04%, 2.85%, -1.74%, -5.42% and -3.92%.
On the same counts, the results for `CC(C)Cn1c(=O)c2cc(F)ccc2n2c(SCc3ccccc3Cl)nnc12` are -6.1%, 0%, 5.24%, -13.4% and 1.34%.
Turning to `O=C1CCN(C(=O)[C@H](Cc2ccccc2)NC(=O)c2ccoc2)CCCOCCN1`, the activity change, negative = inhibition is -6.29% in test [1]; -4.95% in test [2]; -2.21% in test [3]; -10.9% in test [4]; -20% in test [5].
On to `CS(=O)(=O)N1C[C@@H](Oc2ccccc2)C[C@H]1C(=O)N1CCCC1`, for which the activity change, negative = inhibition is -0.794% in test [1]; 1.55% in test [2]; 0.474% in test [3]; -5.03% in test [4]; 13.6% in test [5].
The corresponding values for `CC1(C(=O)NC2CCCCCCC2)Cn2c(ccc2-c2ccco2)C(=O)N1C1CCCC1` (stereo not drawn) are -7.59%, 2.57%, -1.85%, -15.9% and -4.73%.
The corresponding values for `O=C(CCc1c[nH]c2ccccc12)N1CC(N(Cc2ccccc2)C2CCOCC2)C1` are -5.42%, -5.8%, 0.506%, -13% and 8.46%.
Take `COc1ccccc1NC(=O)N1CCN2C(=O)NC[C@H]2C1`: the activity change, negative = inhibition in test [1] was -1.97%; in test [2] it was -1.12%; in test [3], -0.658%; in test [4] it was -8.53%; in test [5], -2.47%.
`CC/C=C(\C(=O)N[C@H]1C(=O)N2C(C(=O)OCOC(=O)C(C)(C)C)=C(COC(N)=O)CS[C@H]12)c1csc(N)n1`: the activity change, negative = inhibition in test [2] was -9.12%; in test [4], -20.5%; in test [5], -6.19%.
For `CN1CCCC2(CC1)CCN(C(=O)c1ccc(C#CC(C)(C)O)cc1)CC2`, the activity change, negative = inhibition in test [1] was -4.45%; in test [2], -8%; in test [3], -12.7%; in test [4] it was -16.1%; in test [5], -4.96%.
Consider `CC(C)(C)Nc1nc2cc(Cl)c(Cl)cc2nc1S(C)(=O)=O`, for which the activity change, negative = inhibition is -8.79% in test [1]; -25.5% in test [2]; 0.416% in test [3]; -35.7% in test [4]; -11% in test [5].
The corresponding values for `Nc1nc2c(ncn2[C@@H]2O[C@@H]3COP(=O)(O)O[C@H]3[C@H]2O)c(=O)[nH]1` are 1.19%, 5.26%, 10.2%, -7.76% and 3.96%.
The corresponding values for `Cc1ccc(F)c(C(=O)N[C@H]2CCOC[C@H]2C2CCOCC2)c1Cl` are -5.29%, -6.53%, -2.51%, -6.24% and 1.88%.
For `CN(CCc1ccccc1)C(=O)c1cc(-c2ccc[nH]2)n[nH]1`, the activity change, negative = inhibition was -33.7% in test [1]; -19.2% in test [2]; -9.72% in test [3]; -21.6% in test [4]; -22.7% in test [5].
The corresponding values for `CCc1ccc(S(=O)(=O)Nc2ccc3c(c2)n(C)c(=O)n3C)cc1` are -2.94%, -0.16%, -4.21%, -15.8% and -11.2%.
On the same counts, the results for `Cc1cccc(Cn2nc3n(C(C)C)c(=O)c4ccc(C(=O)NCC(C)C)cc4n3c2=O)c1` are -3.87%, 3.47%, 0.124%, -0.86% and -0.106%.
Take `N#CC1CCN(C(=O)c2nc(-c3ccc(Cl)cc3Cl)c3ccccn23)CC1`: the activity change, negative = inhibition in test [1] was -5.3%; in test [2] it was -3.1%; in test [3], -3.24%; in test [4], -18%; in test [5], -9.14%.
